{"source": "PubChem BioAssay AID651820", "about": "(National Center for Advancing Translational Sciences (NCATS), 2012)", "note": "In all, about 340,000 compounds went through this assay and about 12,000 (3.5%) were called active. The inconclusive results got no clear call from the source; some entries with a clear call stand among them for comparison. The call rests on the fitted dose curve; in most records, active means well fitted inhibition curve with a large enough effect; inconclusive means small, poorly fitted or top-dose-only effect, or another doubt; inactive means no such curve, though single readings can be large or run the other way. No potency is given beside an inconclusive call; the fits are too rough. On the % scale 0 is the no-effect control and ±100 the full control effect; potency means the concentration at half of the fitted maximal effect; tags describe the fitted curve by direction and shape.", "data": [{"experiment": "qHTS Assay for Inhibitors of Hepatitis C Virus (HCV)", "details": "Huh7.5.1 HCVcc-Cre (HCVcc is cell-culture hepatitis C virus) infection, luciferase reporter, 44 h; activity change, negative = inhibition: at 41.8 µM (top of the series)", "procedure,_shortened": "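Infectious HCV cell culture screen: compound-treated cells (1,000/well, pre-plated 4 h) are infected with HCVcc-Cre at roughly 0.5 moi and grown 44 h. Infection is quantified by luciferase signal after 15 min substrate incubation at room temperature.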", "values": [{"smiles": "COc1ccc(CN2CCN(Cc3ccc(C)cc3)C(CCO)C2)cc1OC", "note": "(stereo unspecified)", "Potency": "inconclusive [inhibitor, single point]"}, {"smiles": "CCOC(=O)Cn1c(CN2CCc3ccccc3C2)nc2c1c(=O)n(C)c(=O)n2C", "Potency": "inconclusive [inhibitor, partial curve]"}, {"smiles": "Cc1ccc(NC(=O)CN(C)C(=O)COc2ccccc2-c2ccccc2)cc1", "Potency": "inconclusive [inhibitor, single point]"}, {"smiles": "Cc1[nH]c(=O)c(C#N)c(C)c1CCC(=O)NCc1ccc(Cl)cc1", "activity change, negative = inhibition": "inactive: -1%"}, {"smiles": "COc1ccc(CCNC(=S)Nc2ccc(C)cc2C)cc1", "Potency": "inconclusive [inhibitor, partial curve]"}, {"smiles": "O=S(=O)(c1ccc(Cl)s1)N1CCc2ccccc2C1", "Potency": "inconclusive [inhibitor, single point]"}, {"smiles": "CC1CCN(C(CC(=O)c2ccccc2)C(=O)c2ccccc2)CC1", "note": "(stereo unspecified)", "activity change, negative = inhibition": "inactive: -10%"}, {"smiles": "COc1ccc(C(=O)Nc2ccc3oc(-c4cccc(Cl)c4)cc(=O)c3c2O)cc1", "Potency": "inconclusive [inhibitor, partial curve]"}, {"smiles": "O=[N+]([O-])c1cc(CN2CCCC2)ccc1Sc1ccc(Cl)cc1", "Potency": "inconclusive [inhibitor, partial curve]"}, {"smiles": "COc1ccc(Cl)cc1NC(=O)CN(C)CC(=O)Nc1ccccc1N1CCOCC1", "Potency": "inconclusive [inhibitor, full curve, poor fit]"}, {"smiles": "CCCN(C(=O)c1cccc(-n2cccc2)c1)c1c(N)n(Cc2ccccc2)c(=O)[nH]c1=O", "activity change, negative = inhibition": "inconclusive: -65.4% [inhibitor]"}, {"smiles": "Cc1ccc(/C=[N+](/C)[O-])cc1", "activity change, negative = inhibition": "inactive: 15.6%"}, {"smiles": "CC(=O)c1cccc(-c2ccc3c(=O)[nH]c(Nc4ccccc4)cc3c2)c1", "activity change, negative = inhibition": "inactive: -10.6%"}, {"smiles": "O=C(Nc1cccc(OC(F)(F)F)c1)c1ccc(Br)o1", "Potency": "inconclusive [inhibitor, full curve]"}, {"smiles": "CCn1ccnc1CN1CCCC(CO)(Cc2cccc(OC)c2)C1", "note": "(stereo unspecified)", "Potency": "inconclusive [inhibitor, partial curve]"}, {"smiles": "Cc1cccc(NC(=O)/C=C/c2ccc(Cl)cc2)n1", "Potency": "inconclusive [inhibitor, single point]"}, {"smiles": "CSc1nc(N)c(N=Nc2ccc([As](=O)(O)O)cc2)c(=O)[nH]1", "Potency": "inconclusive [inhibitor, partial curve, poor fit]"}, {"smiles": "O=C(NCCC(=O)N1CCC2(CC1)NCCc1[nH]cnc12)c1ccc(F)c(F)c1", "Potency": "inconclusive [inhibitor, single point]"}, {"smiles": "COc1cccc(COc2ccccc2C2Nc3ccc(Br)cc3C(=O)N2NC(=O)c2ccncc2)c1", "note": "(stereo unspecified)", "Potency": "inconclusive [inhibitor, single point]"}, {"smiles": "C=CCn1c2ccccc2c(=O)c2cc(C#Cc3cc(OC)cc(OC)c3)ccc21", "Potency": "inconclusive [inhibitor, partial curve]"}, {"smiles": "Cc1cc(C)c(S(=O)(=O)/N=C2/C=C(Sc3ncn[nH]3)C(=O)c3ccccc32)cc1C", "Potency": "inconclusive [inhibitor, full curve]"}, {"smiles": "CC1=CC(C)(C)Nc2ccc(OC(=O)c3ccco3)cc21", "Potency": "inconclusive [inhibitor, single point]"}, {"smiles": "CCOC(=O)c1nn(-c2ccc(Cl)cc2)c2nc(CC)c(C#N)c(=O)n12", "activity change, negative = inhibition": "inactive: -1.9%"}, {"smiles": "CC(C)CC(=O)N1CCN(c2ccc([N+](=O)[O-])c(NCc3ccccc3)c2)CC1", "Potency": "inconclusive [inhibitor, single point]"}, {"smiles": "CC(=O)Nc1ccc(NC(=O)C(C)OC(=O)C2(c3ccc(F)cc3)CCCC2)cc1", "note": "(stereo unspecified)", "Potency": "inconclusive [inhibitor, single point]"}, {"smiles": "CCOc1ccc(/C=N/NC(=O)c2ccccc2O)cc1CN1CC2CC(C1)c1cccc(=O)n1C2", "note": "(stereo unspecified)", "activity change, negative = inhibition": "inactive: 2.29%"}, {"smiles": "O=C(CCS(=O)(=O)Cc1ccccc1)Nc1nc2c(s1)CCCC2", "Potency": "inconclusive [inhibitor, single point]"}, {"smiles": "Cc1ccc(S(=O)(=O)N2CCCC(NC(=O)N3CCN(c4ccccc4)CC3)C2)cc1", "note": "(stereo unspecified)", "Potency": "inconclusive [inhibitor, single point]"}, {"smiles": "CCc1ccc(-c2nc(C(N)=O)c3[nH]c(=O)n(-c4ccccc4OC)c3n2)cc1", "Potency": "inconclusive [inhibitor, full curve, poor fit]"}, {"smiles": "CCNC(=S)N(CCc1c(C)[nH]c2ccc(C)cc12)Cc1cccs1", "Potency": "inconclusive [inhibitor, partial curve]"}, {"smiles": "C/C(=N\\NC(=O)C1CCCN(S(=O)(=O)c2ccccc2)C1)c1ccccn1", "note": "(stereo unspecified)", "Potency": "inconclusive [inhibitor, full curve]"}, {"smiles": "Cc1cc2c(N3CCCCC3C)ncnc2s1", "note": "(stereo unspecified)", "Potency": "inconclusive [inhibitor, partial curve]"}, {"smiles": "O=C1CC(C(=O)Nc2cccc(F)c2)n2c(nc3ccccc32)N1", "note": "(stereo unspecified)", "Potency": "inconclusive [inhibitor, single point]"}, {"smiles": "Cc1nn(-c2ccccc2)c(C)c1C(=O)OC(C)C(=O)NC1CCCCC1C", "note": "(stereo unspecified)", "Potency": "active: 11.2 µM"}, {"smiles": "COc1cccc(C(=O)OCCNC(=O)c2cccnc2)c1", "activity change, negative = inhibition": "inactive: -1.99%"}, {"smiles": "Cc1ccc(-c2nnc(Nc3ccc(CC(N)=O)cc3)c3ccccc23)cc1S(N)(=O)=O", "activity change, negative = inhibition": "inactive: 11.5%"}, {"smiles": "Cc1ccc(-c2nc(SCC(=O)NCC3CCCO3)c(-c3ccccc3)[nH]2)cc1", "note": "(stereo unspecified)", "Potency": "inconclusive [inhibitor, single point]"}, {"smiles": "COc1ccccc1C(=O)N/C(=N/c1nc(C)cc(C)n1)Nc1ccccc1", "Potency": "active: 8.91 µM"}, {"smiles": "CC(C)Cn1c2c(c(O)c(C(=O)Nn3c(Cc4ccccc4)nc4ccccc4c3=O)c1=O)CCCC2", "Potency": "inconclusive [inhibitor, single point]"}, {"smiles": "Cc1c(C)n(Cc2ccccc2)c2ncnc(NCCCN(C)C)c12", "Potency": "inconclusive [inhibitor, single point]"}, {"smiles": "COc1ccc(NC(=O)C(OC(=O)c2ccc([N+](=O)[O-])o2)c2ccccc2)cc1Cl", "note": "(stereo unspecified)", "activity change, negative = inhibition": "inactive: -6.76%"}, {"smiles": "COc1ccc(-c2nc(C(=O)NCC3CCCO3)cc3c2[nH]c2ccccc23)cc1", "note": "(stereo unspecified)", "Potency": "active: 3.55 µM"}, {"smiles": "Cc1ccc(-c2noc(CSc3nnc(CCc4ccccc4)n3-c3ccccc3)n2)cc1", "Potency": "inconclusive [inhibitor, single point]"}, {"smiles": "C/C(=N\\NC(=O)c1ccc(OC2OCCOC2Oc2ccc(C(=O)N/N=C(\\C)c3ccncc3)cc2)cc1)c1ccncc1", "note": "(stereo unspecified)", "Potency": "inconclusive [inhibitor, partial curve]"}, {"smiles": "CN(Cc1ccon1)C(=O)c1ccc2nc(Cc3cccc(Cl)c3)oc2c1", "activity change, negative = inhibition": "inactive: -4.51%"}, {"smiles": "O=c1cc(CCc2ccccc2)oc2cccc(O)c12", "Potency": "inconclusive [inhibitor, partial curve]"}, {"smiles": "O=C(c1ccc([N+](=O)[O-])s1)N1CCN(c2ccc(C(F)(F)F)cn2)CC1", "Potency": "inconclusive [inhibitor, partial curve]"}, {"smiles": "CC1(C)CC(NS(=O)(=O)c2ccc(Cl)cc2)CC(C)(C)N1", "Potency": "inconclusive [inhibitor, partial curve]"}, {"smiles": "Cc1nc(NCc2ccccc2)sc1C(=O)Nc1ccccc1", "Potency": "inconclusive [inhibitor, partial curve]"}, {"smiles": "N=c1c2c(ncn1Cc1ccco1)Oc1ccc3ccccc3c1C2c1ccccc1", "note": "(stereo unspecified)", "Potency": "inconclusive [inhibitor, partial curve]"}, {"smiles": "COc1cc(OC)cc(-c2ncc3ccccn23)c1", "Potency": "inconclusive [inhibitor, single point]"}, {"smiles": "Cc1cccc(C(=O)N2CCC(=O)N(C(COCc3ccc(Cl)cc3)Cc3ccccc3)CC2)c1", "note": "(stereo unspecified)", "Potency": "inconclusive [inhibitor, single point]"}, {"smiles": "Cc1ccc(Nc2nc(N)nc(CN3CCN(Cc4ccc5c(c4)OCO5)CC3)n2)c(C)c1", "Potency": "inconclusive [inhibitor, partial curve]"}, {"smiles": "COc1ccc2[nH]c(=O)c(CNc3cccc(C)c3)cc2c1", "Potency": "inconclusive [inhibitor, single point]"}, {"smiles": "C=CCn1cccc(C(=O)Nc2ccc(C)c(Cl)c2)c1=O", "activity change, negative = inhibition": "inactive: -19.1%"}, {"smiles": "COC(=O)C1C(=O)c2c([nH]c(C(=O)OC3CCCCCC3)c2C)CC1C", "note": "(stereo unspecified)", "Potency": "inconclusive [inhibitor, partial curve]"}, {"smiles": "COCCc1ncc(CN2CCCC(C(=O)Nc3cccc(-c4cccc(C)c4)c3)C2)cn1", "note": "(stereo unspecified)", "Potency": "inconclusive [inhibitor, partial curve]"}, {"smiles": "CCOC(=O)Cn1nnnc1CN(Cc1ccccc1)Cc1cc2cc(CC)ccc2[nH]c1=O", "activity change, negative = inhibition": "inactive: 2.68%"}, {"smiles": "COc1cc(OC)c(C(=O)OCC(=O)N(Cc2ccccc2)C(C)(C)C)cc1OC", "activity change, negative = inhibition": "inactive: -8.82%"}, {"smiles": "CCCCC(c1nnnn1CC1CCCO1)N1CCN(c2nc3ccccc3s2)CC1", "note": "(stereo unspecified)", "Potency": "inconclusive [inhibitor, single point]"}, {"smiles": "COc1ccc(-n2c(NCCN(C)C)nc3sc4c(c3c2=O)CCCCC4)cc1", "Potency": "inconclusive [inhibitor, partial curve]"}, {"smiles": "Cc1ccc(C)c(NC(=O)COc2coc(CN3CCc4ccccc43)cc2=O)c1", "Potency": "inconclusive [inhibitor, partial curve]"}, {"smiles": "COc1ccccc1-c1cc(C(=O)NC2CCN(C)CC2)c2ccc(Cl)c(C)c2n1", "activity change, negative = inhibition": "inactive: -4.65%"}, {"smiles": "Cc1cccc(NC(=O)c2ccc(COc3ccccc3[N+](=O)[O-])o2)n1", "Potency": "active: 25.1 µM"}, {"smiles": "O=C(NCCc1ccccn1)c1cc(-c2cccc3ccccc23)nc2ccccc12", "Potency": "inconclusive [inhibitor, partial curve]"}, {"smiles": "Cc1ccc(-n2c(Cc3cccn3C)nnc2SCC(=O)NCc2ccco2)cc1", "activity change, negative = inhibition": "inactive: 19.4%"}]}]}
